Assay results published in the supplement of paper PMC8728848.
The list shows a part of the results.

Assays:
Assay in all cases: glycan array binding signal (z-score within array); higher = stronger binding
Conditions in all cases: glycan notation: IUPAC condensed, linker removed
[1] = biological target: Fuc(a1-2)[GalNAc(a1-3)]Gal(b1-3)GlcNAc(b1-2)Man(a1-3)[Fuc(a1-2)[GalNAc(a1-3)]Gal(b1-3)GlcNAc(b1-2)Man(a1-6)]Man(b1-4)GlcNAc(b1-4)[Fuc(a1-6)]GlcNAc
Method in brief: (§1)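 The binding signal is a Z-score computed within each array. Data were drawn from 3228 arrays in the Consortium for Functional Glycomics database, restricted to those with a known protein sequence. Scores were averaged over arrays of the same protein sequence at different concentrations or buffers, and over linkers, and negative values can be taken as non-binding.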

[2] = biological target: Fuc(a1-2)[GalNAc(a1-3)]Gal(b1-3)GlcNAc(b1-3)GalNAc
Method in brief: as §1

[3] = biological target: Fuc(a1-2)[GalNAc(a1-3)]Gal(b1-3)GlcNAc(b1-6)GalNAc
Method in brief: as §1

[4] = biological target: Fuc(a1-2)[GalNAc(a1-3)]Gal(b1-4)Glc
Method in brief: as §1

[5] = biological target: Fuc(a1-2)[GalNAc(a1-3)]Gal(b1-4)GlcNAc
Method in brief: as §1

[6] = biological target: Fuc(a1-2)[GalNAc(a1-3)]Gal(b1-4)GlcNAc(b1-2)Man
Method in brief: as §1

[7] = biological target: Fuc(a1-2)[GalNAc(a1-3)]Gal(b1-4)GlcNAc(b1-2)Man(a1-3)[Fuc(a1-2)[GalNAc(a1-3)]Gal(b1-4)GlcNAc(b1-2)Man(a1-6)]Man(b1-4)GlcNAc(b1-4)GlcNAc
Method in brief: as §1

[8] = biological target: Fuc(a1-2)[GalNAc(a1-3)]Gal(b1-4)GlcNAc(b1-2)Man(a1-3)[Fuc(a1-2)[GalNAc(a1-3)]Gal(b1-4)GlcNAc(b1-2)Man(a1-6)]Man(b1-4)GlcNAc(b1-4)[Fuc(a1-6)]GlcNAc
Method in brief: as §1

[9] = biological target: Fuc(a1-2)[GalNAc(a1-3)]Gal(b1-4)GlcNAc(b1-3)Gal(b1-4)GlcNAc
Method in brief: as §1

[10] = biological target: Fuc(a1-2)[GalNAc(a1-3)]Gal(b1-4)GlcNAc(b1-3)Gal(b1-4)GlcNAc(b1-3)Gal(b1-4)GlcNAc
Method in brief: as §1

[11] = biological target: Fuc(a1-2)[GalNAc(a1-3)]Gal(b1-4)GlcNAc(b1-3)GalNAc
Method in brief: as §1

[12] = biological target: Fuc(a1-2)[GalNAc(a1-3)]Gal(b1-4)GlcNAc(b1-3)[Fuc(a1-2)[GalNAc(a1-3)]Gal(b1-4)GlcNAc(b1-6)]GalNAc
Method in brief: as §1

[13] = biological target: Fuc(a1-2)[GalNAc(a1-3)]Gal(b1-4)GlcNAc(b1-6)GalNAc
Method in brief: as §1

[14] = biological target: Fuc(a1-2)[GalNAc(a1-3)]Gal(b1-4)[Fuc(a1-3)]GlcNAc
Method in brief: as §1

[15] = biological target: Fuc(a1-2)[GalNAc(a1-3)]Gal(b1-4)[Fuc(a1-3)]GlcNAc(b1-3)GalNAc
Method in brief: as §1

[16] = biological target: Fuc(a1-2)[GalNAc(a1-4)]Gal(b1-4)GlcNAc
Method in brief: as §1

[17] = biological target: Fuc(a1-2)[GalNAc(b1-3)]Gal
Method in brief: as §1

[18] = biological target: Fuc(a1-3)GlcNAc
Method in brief: as §1

[19] = biological target: Fuc(a1-3)[Gal(b1-4)]Glc6S
Method in brief: as §1

[20] = biological target: Fuc(a1-3)[Gal(b1-4)]GlcNAc
Method in brief: as §1

[21] = biological target: Fuc(a1-3)[Gal(b1-4)]GlcNAc(b1-2)Man
Method in brief: as §1

[22] = biological target: Fuc(a1-3)[Gal(b1-4)]GlcNAc(b1-2)Man(a1-3)[Fuc(a1-3)[Gal(b1-4)]GlcNAc(b1-2)Man(a1-6)]Man(b1-4)GlcNAc(b1-4)GlcNAc
Method in brief: as §1

[23] = biological target: Fuc(a1-3)[Gal(b1-4)]GlcNAc(b1-2)Man(a1-3)[Fuc(a1-3)[Gal(b1-4)]GlcNAc(b1-2)Man(a1-6)]Man(b1-4)GlcNAc(b1-4)[Fuc(a1-6)]GlcNAc
Method in brief: as §1

[24] = biological target: Fuc(a1-3)[Gal(b1-4)]GlcNAc(b1-2)Man(a1-6)[Gal(b1-4)GlcNAc(b1-2)Man(a1-3)]Man(b1-4)GlcNAc(b1-4)GlcNAc
Method in brief: as §1

[25] = biological target: Fuc(a1-3)[Gal(b1-4)]GlcNAc(b1-3)Gal(b1-3)[Fuc(a1-4)]GlcNAc
Method in brief: as §1

[26] = biological target: Fuc(a1-3)[Gal(b1-4)]GlcNAc(b1-3)GalNAc
Method in brief: as §1

[27] = biological target: Fuc(a1-3)[Gal(b1-4)]GlcNAc(b1-4)Gal(b1-4)[Fuc(a1-3)]GlcNAc
Method in brief: as §1

[28] = biological target: Fuc(a1-3)[Gal(b1-4)]GlcNAc(b1-4)Gal(b1-4)[Fuc(a1-3)]GlcNAc(b1-4)Gal(b1-4)[Fuc(a1-3)]GlcNAc
Method in brief: as §1

[29] = biological target: Fuc(a1-3)[Gal(b1-4)]GlcNAc(b1-6)GalNAc
Method in brief: as §1

[30] = biological target: Fuc(a1-3)[Gal(b1-4)]GlcNAc(b1-6)[Gal(b1-3)GlcNAc(b1-3)]Gal(b1-4)Glc
Method in brief: as §1

[31] = biological target: Fuc(a1-3)[Gal(b1-4)]GlcNAc6S
Method in brief: as §1

[32] = biological target: Fuc(a1-3)[Gal3S(b1-4)]Glc
Method in brief: as §1

[33] = biological target: Fuc(a1-3)[Gal3S(b1-4)]Glc6S
Method in brief: as §1

[34] = biological target: Fuc(a1-3)[Gal3S(b1-4)]GlcNAc
Method in brief: as §1

[35] = biological target: Fuc(a1-3)[Gal3S(b1-4)]GlcNAc6S
Method in brief: as §1

[36] = biological target: Fuc(a1-3)[GalNAc(b1-4)]GlcNAc
Method in brief: as §1

[37] = biological target: Fuc(a1-3)[GalNAc(b1-4)]GlcNAc6S
Method in brief: as §1

B1: Gal 8 (Homo sapiens) (protein)
chain: MLSLNNLQNIIYNPVIPYVGTIPDQLDPGTLIVICGHVPSDADRFQVDLQNGSSVKPRADVAFHFNPRFKRAGCIVCNTLINEKWGREEITYDTPFKREKSFEIVIMVLKDKFQVAVNGKHTLLYGHRIGPEKIDTLGIYGKVNIHSIGFSFSSDLQSTQASSLELTEISRENVPKSGTPQLQTVSPSWDLQGHGSETFCSVLWTRVFLEIAFCRPIGLTVASFQSLPFAARLNTPMGPGRTVVVKGEVNANAKSFNVDLLAGKSKDIALHLNPRLNIKAFVRNSFLQESWGEEERNITSFPFSPGMYFEMIIYCDVREFKVAVNGVHSLEYKHRFKELSSIDTLEINGDIHLLEVRSW
glycan array binding signal (z-score) [1]: 0.935
glycan array binding signal (z-score) [2]: -0.191
glycan array binding signal (z-score) [3]: 1.11
glycan array binding signal (z-score) [4]: 1.42
glycan array binding signal (z-score) [5]: 1.5
glycan array binding signal (z-score) [6]: 2.74
glycan array binding signal (z-score) [7]: 5.81
glycan array binding signal (z-score) [8]: 1.71
glycan array binding signal (z-score) [9]: 2.08
glycan array binding signal (z-score) [10]: 2.05
glycan array binding signal (z-score) [11]: 0.063
glycan array binding signal (z-score) [12]: 1.21
glycan array binding signal (z-score) [13]: 0.331
glycan array binding signal (z-score) [14]: -0.391
glycan array binding signal (z-score) [15]: -0.355
glycan array binding signal (z-score) [16]: -0.357
glycan array binding signal (z-score) [17]: -0.279
glycan array binding signal (z-score) [18]: -0.353
glycan array binding signal (z-score) [19]: -0.345
glycan array binding signal (z-score) [20]: -0.398
glycan array binding signal (z-score) [21]: -0.355
glycan array binding signal (z-score) [22]: -0.366
glycan array binding signal (z-score) [23]: -0.355
glycan array binding signal (z-score) [24]: -0.374
glycan array binding signal (z-score) [25]: -0.362
glycan array binding signal (z-score) [26]: -0.358
glycan array binding signal (z-score) [27]: -0.37
glycan array binding signal (z-score) [28]: -0.35
glycan array binding signal (z-score) [29]: -0.356
glycan array binding signal (z-score) [30]: -0.349
glycan array binding signal (z-score) [31]: -0.357
glycan array binding signal (z-score) [32]: -0.356
glycan array binding signal (z-score) [33]: -0.21
glycan array binding signal (z-score) [34]: -0.373
glycan array binding signal (z-score) [35]: -0.21
glycan array binding signal (z-score) [36]: -0.395
glycan array binding signal (z-score) [37]: -0.358
